# Laboratory results taken from PMC10485003, “Antibiotic hyper-resistance in a class I aminoacyl-tRNA synthetase with altered active site signature motif” (Nature Communications, 2023).
# “And” between values parts separate entries of the source, which are not always exact repeats. Identical values can stand only once. This continues a long series; more values of the same kind are listed elsewhere.
# Tests used:
# wt-HVGH TtIleRS2 = target: T1, wt-HVGH TtIleRS2 (Thermus thermophilus, UniProt P56690); experiment: ATP-PPi exchange assay, mupirocin inhibition of amino acid activation; format: biochemical
# T1 construct: hexa-histidine tag (pET28b(+)) (N); made in house; host or cells: E. coli Rosetta2 (DE3)
# T1 sequence (P56690 1-1043): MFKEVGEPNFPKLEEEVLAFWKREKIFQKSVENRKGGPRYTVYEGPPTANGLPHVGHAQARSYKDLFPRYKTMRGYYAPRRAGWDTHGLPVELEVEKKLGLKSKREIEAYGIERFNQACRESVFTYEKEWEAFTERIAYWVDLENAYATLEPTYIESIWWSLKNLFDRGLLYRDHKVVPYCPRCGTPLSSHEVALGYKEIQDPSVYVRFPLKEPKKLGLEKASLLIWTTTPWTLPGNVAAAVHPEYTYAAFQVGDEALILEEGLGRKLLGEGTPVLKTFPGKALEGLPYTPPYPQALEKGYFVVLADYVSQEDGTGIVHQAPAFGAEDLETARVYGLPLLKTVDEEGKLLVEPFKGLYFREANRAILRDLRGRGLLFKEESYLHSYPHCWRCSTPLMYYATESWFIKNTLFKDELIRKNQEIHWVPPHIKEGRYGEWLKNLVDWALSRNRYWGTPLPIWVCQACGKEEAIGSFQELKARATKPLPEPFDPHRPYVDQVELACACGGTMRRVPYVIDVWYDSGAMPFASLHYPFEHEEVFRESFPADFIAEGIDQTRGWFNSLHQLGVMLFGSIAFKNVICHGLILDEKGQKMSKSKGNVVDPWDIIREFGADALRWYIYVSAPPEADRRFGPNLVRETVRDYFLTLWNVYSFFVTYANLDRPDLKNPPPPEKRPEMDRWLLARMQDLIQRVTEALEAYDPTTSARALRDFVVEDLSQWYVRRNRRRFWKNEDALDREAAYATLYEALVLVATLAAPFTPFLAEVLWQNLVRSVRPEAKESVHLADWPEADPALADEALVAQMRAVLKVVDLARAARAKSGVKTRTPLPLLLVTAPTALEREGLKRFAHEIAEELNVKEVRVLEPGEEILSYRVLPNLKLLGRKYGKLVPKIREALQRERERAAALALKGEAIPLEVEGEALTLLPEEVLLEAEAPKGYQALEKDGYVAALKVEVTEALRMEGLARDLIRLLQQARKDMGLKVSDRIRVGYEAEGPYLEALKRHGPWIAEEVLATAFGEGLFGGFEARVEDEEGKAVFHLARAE
# Experimental: (§1) L-Ile and ATP concentrations ranged from 1/10 KM to 10 KM values. When measuring the KI towards one of the substrates, the other was held in saturation (concentrations at least 10 KM). The aliquots of the reaction mixture (1–2.5 μl) were quenched in 2 volumes of 500 mM NaOAc pH = 4.5, 0.1% SDS, and formed ^32P-ATP was separated from the remaining ^32P-PPi by thin-layer chromatography on Polygram CEL 300 PEI UV254 TLC plates (Macherey-Nagel, cat: 801063) using 750 mM KH2PO4 pH=3.5, 4 M urea buffer. Visualization and quantification of the signals was performed using a Typhoon Phosphoimager 5 (General Electric) and accompanying ImageQuant™ TL software (SV: 10.2). The kinetic constants were determined using a global fit option of the competitive inhibition model of GraphPad Prism 6 software (SV: 6.01). All experiments were performed in triplicates. The kcat was determined by dividing the maximal velocity, VM, with the used enzyme concentration. […]
# (§2) variable substrate (ATP or Ile) was varied in the range of 0.1 KM to 10 KM. The other substrate (Ile or ATP) was kept in excess at 5 to 10 KM. Data were globally fitted to the competitive inhibition model using GraphPad prism 6.01 for Windows software. The values represent the average value ± SD of three independent experiments. Source data are provided as a Source Data file.
# wt-ALHH DrIleRS2 = target: T2, wt-ALHH DrIleRS2 (Deinococcus radiodurans, UniProt Q9RUP8); experiment: as above; format: biochemical
# T2 construct: hexa-histidine tag (pET28b(+)) (N); made in house; host or cells: E. coli BL21(DE3)
# T2 sequence (Q9RUP8 whole entry): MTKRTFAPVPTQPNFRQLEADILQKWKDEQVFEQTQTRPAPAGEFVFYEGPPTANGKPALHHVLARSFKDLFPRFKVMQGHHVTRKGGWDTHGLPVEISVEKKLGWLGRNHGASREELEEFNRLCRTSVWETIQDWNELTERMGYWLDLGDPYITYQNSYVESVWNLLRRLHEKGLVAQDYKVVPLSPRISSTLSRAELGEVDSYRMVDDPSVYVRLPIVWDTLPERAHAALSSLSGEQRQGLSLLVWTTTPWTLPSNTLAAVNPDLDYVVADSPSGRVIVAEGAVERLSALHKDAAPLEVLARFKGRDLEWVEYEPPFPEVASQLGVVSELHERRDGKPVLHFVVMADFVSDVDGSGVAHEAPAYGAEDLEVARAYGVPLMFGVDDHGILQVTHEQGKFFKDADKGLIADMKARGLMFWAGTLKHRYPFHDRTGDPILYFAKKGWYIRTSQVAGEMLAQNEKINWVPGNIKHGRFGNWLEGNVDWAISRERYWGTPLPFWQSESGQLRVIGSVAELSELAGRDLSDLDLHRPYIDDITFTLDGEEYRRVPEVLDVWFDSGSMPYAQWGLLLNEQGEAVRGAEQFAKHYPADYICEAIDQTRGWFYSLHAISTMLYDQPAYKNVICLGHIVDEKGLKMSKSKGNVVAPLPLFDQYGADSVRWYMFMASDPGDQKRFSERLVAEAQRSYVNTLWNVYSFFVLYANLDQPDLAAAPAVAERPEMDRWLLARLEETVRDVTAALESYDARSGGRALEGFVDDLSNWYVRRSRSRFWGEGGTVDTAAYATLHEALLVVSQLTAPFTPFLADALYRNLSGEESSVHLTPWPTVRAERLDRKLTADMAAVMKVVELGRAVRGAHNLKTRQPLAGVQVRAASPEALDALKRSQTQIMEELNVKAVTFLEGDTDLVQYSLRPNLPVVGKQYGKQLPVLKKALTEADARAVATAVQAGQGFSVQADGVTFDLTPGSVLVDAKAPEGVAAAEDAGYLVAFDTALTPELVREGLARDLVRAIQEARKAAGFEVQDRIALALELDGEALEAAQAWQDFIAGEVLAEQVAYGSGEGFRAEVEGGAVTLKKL
# Experimental: as §1, §2
structure (smiles),measurement,setting,value
C/C(=C\C(=O)OCCCCCCCCC(=O)O)C[C@@H]1OC[C@H](C[C@@H]2O[C@H]2[C@@H](C)[C@H](C)O)[C@@H](O)[C@H]1O [mupirocin],initial velocity vo,"wt-HVGH TtIleRS2; c(mupirocin) 0.25 μM, c(Ile) 50.0 μM",0.03268 mM/min and 0.032 mM/min and 0.03228 mM/min
same,initial velocity vo,"wt-HVGH TtIleRS2; c(mupirocin) 0.25 μM, c(Ile) 100.0 μM",0.04214 mM/min and 0.04284 mM/min and 0.04036 mM/min
same,initial velocity vo,"wt-HVGH TtIleRS2; c(mupirocin) 0.25 μM, c(Ile) 250.0 μM",0.05149 mM/min and 0.05049 mM/min and 0.05195 mM/min
same,initial velocity vo,"wt-HVGH TtIleRS2; c(mupirocin) 0.25 μM, c(Ile) 500.0 μM",0.05528 mM/min and 0.05614 mM/min and 0.05474 mM/min
same,initial velocity vo,"wt-HVGH TtIleRS2; c(mupirocin) 0.5 μM, c(Ile) 50.0 μM",0.02391 mM/min and 0.02562 mM/min and 0.0253 mM/min
same,initial velocity vo,"wt-HVGH TtIleRS2; c(mupirocin) 0.5 μM, c(Ile) 100.0 μM",0.03543 mM/min and 0.03534 mM/min and 0.03513 mM/min
same,initial velocity vo,"wt-HVGH TtIleRS2; c(mupirocin) 0.5 μM, c(Ile) 250.0 μM",0.04652 mM/min and 0.04792 mM/min and 0.04618 mM/min
same,initial velocity vo,"wt-HVGH TtIleRS2; c(mupirocin) 0.5 μM, c(Ile) 500.0 μM",0.05261 mM/min and 0.05646 mM/min and 0.05126 mM/min
same,initial velocity vo,"wt-HVGH TtIleRS2; c(mupirocin) 1.0 μM, c(Ile) 100.0 μM",0.0275 mM/min and 0.02794 mM/min and 0.02492 mM/min
same,initial velocity vo,"wt-HVGH TtIleRS2; c(mupirocin) 1.0 μM, c(Ile) 250.0 μM",0.03985 mM/min and 0.04062 mM/min and 0.0387 mM/min
same,initial velocity vo,"wt-HVGH TtIleRS2; c(mupirocin) 1.0 μM, c(Ile) 500.0 μM",0.0485 mM/min and 0.04796 mM/min and 0.04648 mM/min
same,initial velocity vo,"wt-HVGH TtIleRS2; c(mupirocin) 5.0 μM, c(Ile) 50.0 μM",0.00676 mM/min and 0.00659 mM/min and 0.00595 mM/min
same,initial velocity vo,"wt-HVGH TtIleRS2; c(mupirocin) 5.0 μM, c(Ile) 100.0 μM",0.01129 mM/min and 0.01079 mM/min and 0.01133 mM/min
same,initial velocity vo,"wt-HVGH TtIleRS2; c(mupirocin) 5.0 μM, c(Ile) 250.0 μM",0.02173 mM/min and 0.0201 mM/min and 0.02247 mM/min
same,initial velocity vo,"wt-HVGH TtIleRS2; c(mupirocin) 5.0 μM, c(Ile) 500.0 μM",0.03028 mM/min and 0.03338 mM/min
same,initial velocity vo,"wt-HVGH TtIleRS2; c(mupirocin) 10.0 μM, c(Ile) 50.0 μM",0.00372 mM/min and 0.00331 mM/min and 0.00384 mM/min
same,initial velocity vo,"wt-HVGH TtIleRS2; c(mupirocin) 10.0 μM, c(Ile) 100.0 μM",0.00666 mM/min and 0.00687 mM/min and 0.00702 mM/min
same,initial velocity vo,"wt-HVGH TtIleRS2; c(mupirocin) 10.0 μM, c(Ile) 250.0 μM",0.01344 mM/min and 0.01334 mM/min and 0.01358 mM/min
same,initial velocity vo,"wt-HVGH TtIleRS2; c(mupirocin) 10.0 μM, c(Ile) 500.0 μM",0.02191 mM/min and 0.02198 mM/min and 0.01987 mM/min
same,initial velocity vo,"wt-ALHH DrIleRS2; c(mupirocin) 2.0 mM, c(Ile) 80.0 μM",0.02915 mM/min and 0.02832 mM/min and 0.02988 mM/min
same,initial velocity vo,"wt-ALHH DrIleRS2; c(mupirocin) 2.0 mM, c(Ile) 200.0 μM",0.03984 mM/min and 0.03947 mM/min and 0.04135 mM/min
same,initial velocity vo,"wt-ALHH DrIleRS2; c(mupirocin) 2.0 mM, c(Ile) 500.0 μM",0.04995 mM/min and 0.04848 mM/min and 0.04925 mM/min
same,initial velocity vo,"wt-ALHH DrIleRS2; c(mupirocin) 5.0 mM, c(ATP) 0.5 mM",0.02368 mM/min and 0.02258 mM/min and 0.02421 mM/min
same,initial velocity vo,"wt-ALHH DrIleRS2; c(mupirocin) 5.0 mM, c(Ile) 80.0 μM",0.03021 mM/min and 0.03043 mM/min and 0.03177 mM/min
same,initial velocity vo,"wt-ALHH DrIleRS2; c(mupirocin) 5.0 mM, c(Ile) 200.0 μM",0.04197 mM/min and 0.04271 mM/min and 0.0436 mM/min
same,initial velocity vo,"wt-ALHH DrIleRS2; c(mupirocin) 5.0 mM, c(Ile) 500.0 μM",0.04802 mM/min and 0.04908 mM/min
same,initial velocity vo,"wt-ALHH DrIleRS2; c(mupirocin) 10.0 mM, c(ATP) 0.5 mM",0.01945 mM/min and 0.01917 mM/min and 0.0196 mM/min
same,initial velocity vo,"wt-ALHH DrIleRS2; c(mupirocin) 10.0 mM, c(Ile) 200.0 μM",0.0353 mM/min and 0.03447 mM/min and 0.03555 mM/min
same,initial velocity vo,"wt-ALHH DrIleRS2; c(mupirocin) 10.0 mM, c(Ile) 500.0 μM",0.04467 mM/min and 0.0461 mM/min and 0.04563 mM/min
same,initial velocity vo,"wt-ALHH DrIleRS2; c(mupirocin) 15.0 mM, c(ATP) 0.5 mM",0.01368 mM/min and 0.01451 mM/min and 0.01402 mM/min
same,initial velocity vo,"wt-ALHH DrIleRS2; c(mupirocin) 20.0 mM, c(ATP) 0.5 mM",0.01231 mM/min and 0.01198 mM/min and 0.01278 mM/min
same,initial velocity vo,"wt-ALHH DrIleRS2; c(mupirocin) 25 mM, c(ATP) 0.5 mM",0.00879 mM/min and 0.00979 mM/min and 0.00914 mM/min
same,initial velocity vo,"wt-ALHH DrIleRS2; c(mupirocin) 25.0 mM, c(Ile) 80.0 μM",0.0147 mM/min and 0.0141 mM/min
same,initial velocity vo,"wt-ALHH DrIleRS2; c(mupirocin) 25.0 mM, c(Ile) 200.0 μM",0.0269 mM/min and 0.02755 mM/min and 0.02528 mM/min
same,initial velocity vo,"wt-ALHH DrIleRS2; c(mupirocin) 25.0 mM, c(Ile) 500.0 μM",0.0392 mM/min and 0.0375 mM/min and 0.03647 mM/min
